{"source": "the BET-seq Pho4 binding data (Le et al. 2018)", "note": "The other results are listed elsewhere or left out. The energies were worked out here from pooled read counts, against the library average; single values are noisy.", "data": [{"target": "T1, Pho4 (S. cerevisiae) (UniProt P07270)", "T1 sequence": "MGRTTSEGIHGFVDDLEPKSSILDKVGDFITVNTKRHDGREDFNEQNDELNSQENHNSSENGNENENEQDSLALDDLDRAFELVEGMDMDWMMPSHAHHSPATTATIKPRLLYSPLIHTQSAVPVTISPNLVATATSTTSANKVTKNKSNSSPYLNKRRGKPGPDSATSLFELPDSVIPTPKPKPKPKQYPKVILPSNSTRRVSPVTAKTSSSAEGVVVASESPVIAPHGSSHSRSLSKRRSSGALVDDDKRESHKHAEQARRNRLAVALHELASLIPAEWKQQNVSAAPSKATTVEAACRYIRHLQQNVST", "test": "relative binding free energy (BET-seq); higher = weaker binding", "details": "reference: library average", "units": {"relative binding free energy": "kcal/mol"}, "values": [{"sequence": "GTGGTCACGTGCGGCG", "relative binding free energy": 0.06}, {"sequence": "TGTTTCACGTGGGGTG", "relative binding free energy": 0.12}, {"sequence": "GAGTGCACGTGTGAAT", "relative binding free energy": 0.08}, {"sequence": "TGTTGCACGTGCCTAT", "relative binding free energy": 0.06}, {"sequence": "AGGGCCACGTGGGCGG", "relative binding free energy": -0.21}, {"sequence": "GGCGGCACGTGTTATA", "relative binding free energy": -0.01}, {"sequence": "AGTCACACGTGAGGAG", "relative binding free energy": 0.35}, {"sequence": "GATGTCACGTGCAAGG", "relative binding free energy": 0.14}, {"sequence": "AAGTTCACGTGTGGTA", "relative binding free energy": 0.34}, {"sequence": "AGTAGCACGTGTTGGT", "relative binding free energy": 0}, {"sequence": "GGTGGCACGTGTGGGA", "relative binding free energy": -0.06}, {"sequence": "TTTCGCACGTGAGTTT", "relative binding free energy": 0.2}, {"sequence": "CATTGCACGTGGTTGA", "relative binding free energy": -0.18}, {"sequence": "GGGGGCACGTGTTTAC", "relative binding free energy": -0.15}, {"sequence": "TTGCTCACGTGATTGG", "relative binding free energy": 0.29}, {"sequence": "ATGGACACGTGGGGAC", "relative binding free energy": -0.09}, {"sequence": "CTATACACGTGTGGGT", "relative binding free energy": 0.03}, {"sequence": "AGGGACACGTGCTTGT", "relative binding free energy": -0.22}, {"sequence": "ACATTCACGTGATGTT", "relative binding free energy": 0.18}, {"sequence": "CGCGACACGTGTGTTT", "relative binding free energy": 0.24}, {"sequence": "TGGCTCACGTGTCTTG", "relative binding free energy": 0.03}, {"sequence": "ATCGACACGTGGTAGG", "relative binding free energy": 0.04}, {"sequence": "TTTATCACGTGGGTAA", "relative binding free energy": 0}, {"sequence": "CGGAACACGTGTGTTG", "relative binding free energy": 0.08}, {"sequence": "AGGAGCACGTGGACGG", "relative binding free energy": 0.03}, {"sequence": "CTATTCACGTGCGGTT", "relative binding free energy": 0.16}, {"sequence": "TTGGTCACGTGGTACT", "relative binding free energy": 0.11}, {"sequence": "GTCGGCACGTGGATGG", "relative binding free energy": -0.01}, {"sequence": "ATACGCACGTGATGGT", "relative binding free energy": -0.09}, {"sequence": "GGTGTCACGTGATAGG", "relative binding free energy": 0.23}, {"sequence": "GGTTTCACGTGTAAGG", "relative binding free energy": 0.32}, {"sequence": "TGTCGCACGTGCGAGG", "relative binding free energy": -0.13}, {"sequence": "GTAAACACGTGTAGTA", "relative binding free energy": 0.05}, {"sequence": "GGGGTCACGTGGGAGT", "relative binding free energy": 0.11}, {"sequence": "GGGAGCACGTGGTGGA", "relative binding free energy": -0.23}, {"sequence": "CGCTGCACGTGTGTGG", "relative binding free energy": -0.05}, {"sequence": "AACGTCACGTGGTTTT", "relative binding free energy": 0.05}, {"sequence": "GTCAGCACGTGCTGTG", "relative binding free energy": 0.09}, {"sequence": "AGAGGCACGTGAAGGA", "relative binding free energy": 0.15}, {"sequence": "TTTGACACGTGATGGC", "relative binding free energy": 0.39}, {"sequence": "GCAATCACGTGGTTGG", "relative binding free energy": 0.03}, {"sequence": "TGAGGCACGTGCACGG", "relative binding free energy": -0.14}, {"sequence": "GTAGTCACGTGACTTG", "relative binding free energy": 0.16}, {"sequence": "GTTAGCACGTGAGGGT", "relative binding free energy": 0.18}, {"sequence": "TGGTGCACGTGGGTCT", "relative binding free energy": -0.13}, {"sequence": "TATCCCACGTGTGTGT", "relative binding free energy": 0.03}, {"sequence": "CTCTTCACGTGGGGGT", "relative binding free energy": 0.05}, {"sequence": "GATCTCACGTGGTAGT", "relative binding free energy": 0.19}, {"sequence": "TCGGGCACGTGGGTGC", "relative binding free energy": -0.13}, {"sequence": "ATTACCACGTGGTTTA", "relative binding free energy": -0.06}, {"sequence": "ACGATCACGTGGGGAT", "relative binding free energy": 0.1}, {"sequence": "TATATCACGTGATAGT", "relative binding free energy": 0.26}, {"sequence": "ATTTACACGTGAGGCT", "relative binding free energy": 0.28}, {"sequence": "CATGACACGTGTTAGG", "relative binding free energy": -0.06}, {"sequence": "TTAAACACGTGTATAT", "relative binding free energy": 0.04}, {"sequence": "CTTTTCACGTGTAGGC", "relative binding free energy": 0.29}, {"sequence": "ATGGTCACGTGGATTG", "relative binding free energy": 0.12}, {"sequence": "ATGGGCACGTGCGGGC", "relative binding free energy": -0.21}, {"sequence": "GTGTGCACGTGGGGCT", "relative binding free energy": -0.21}, {"sequence": "TGCTTCACGTGATGGG", "relative binding free energy": 0.47}, {"sequence": "AGTGGCACGTGCTGTA", "relative binding free energy": -0.32}, {"sequence": "GGGTGCACGTGGTGCG", "relative binding free energy": -0.06}, {"sequence": "GGTCTCACGTGGGGAA", "relative binding free energy": 0.16}, {"sequence": "CTTATCACGTGAGTGA", "relative binding free energy": 0.38}, {"sequence": "GTGTACACGTGAGCTA", "relative binding free energy": 0.35}, {"sequence": "GGGTTCACGTGTAGAA", "relative binding free energy": 0.22}, {"sequence": "AGGCGCACGTGTCGGG", "relative binding free energy": -0.03}, {"sequence": "CAGGGCACGTGGTGCA", "relative binding free energy": -0.25}, {"sequence": "TGGGTCACGTGGTGTT", "relative binding free energy": 0.17}, {"sequence": "TGGATCACGTGTGTCT", "relative binding free energy": 0.15}, {"sequence": "CATGTCACGTGAAGGT", "relative binding free energy": 0.19}, {"sequence": "GGGCGCACGTGTGACG", "relative binding free energy": -0.05}, {"sequence": "GGGTTCACGTGGCAGT", "relative binding free energy": 0.3}, {"sequence": "GGTTACACGTGTTCTA", "relative binding free energy": 0.12}, {"sequence": "TCTGACACGTGTGGGT", "relative binding free energy": 0.06}, {"sequence": "TTGTGCACGTGATTAG", "relative binding free energy": 0.18}, {"sequence": "ATGTGCACGTGTAGAG", "relative binding free energy": -0.05}, {"sequence": "TTAAGCACGTGTACGT", "relative binding free energy": -0.09}, {"sequence": "CTTTACACGTGTGAGG", "relative binding free energy": 0.04}, {"sequence": "TTGTGCACGTGTGATG", "relative binding free energy": 0.09}, {"sequence": "TTTGACACGTGTTACT", "relative binding free energy": -0.06}, {"sequence": "GGTAACACGTGTTGAA", "relative binding free energy": 0.13}, {"sequence": "GTTCGCACGTGAGGTT", "relative binding free energy": 0.29}, {"sequence": "GGGTTCACGTGTTCGG", "relative binding free energy": 0.33}, {"sequence": "GGGATCACGTGGTGGC", "relative binding free energy": 0.16}, {"sequence": "AGAAGCACGTGTATGG", "relative binding free energy": -0.07}, {"sequence": "ATTGACACGTGAAGTG", "relative binding free energy": 0.16}, {"sequence": "TTAGTCACGTGATGTT", "relative binding free energy": 0.18}, {"sequence": "GTTTACACGTGTGGGC", "relative binding free energy": 0.23}, {"sequence": "TGCTACACGTGGGGTC", "relative binding free energy": -0.04}, {"sequence": "GAGTTCACGTGTTGCG", "relative binding free energy": 0.22}, {"sequence": "ATAAGCACGTGGTTGA", "relative binding free energy": -0.17}, {"sequence": "TAGGACACGTGCTGTT", "relative binding free energy": -0.03}, {"sequence": "AGTGTCACGTGGTGCA", "relative binding free energy": -0.17}, {"sequence": "TCGGTCACGTGGAGAG", "relative binding free energy": 0.11}, {"sequence": "CGTTGCACGTGTATGT", "relative binding free energy": 0.04}, {"sequence": "CGTTACACGTGTTTAT", "relative binding free energy": 0.02}, {"sequence": "TAATGCACGTGCTTGG", "relative binding free energy": -0.07}, {"sequence": "GCTGGCACGTGAGGCT", "relative binding free energy": 0.14}, {"sequence": "TTGTGCACGTGATTCA", "relative binding free energy": 0.03}, {"sequence": "GTTAGCACGTGACATG", "relative binding free energy": 0.12}, {"sequence": "GGGTCCACGTGCTAGG", "relative binding free energy": 0.08}, {"sequence": "CGGAACACGTGGTGGA", "relative binding free energy": -0.13}, {"sequence": "AAAGTCACGTGTTAGG", "relative binding free energy": -0.07}, {"sequence": "GTTGCCACGTGGTGTG", "relative binding free energy": -0.17}, {"sequence": "TGGTTCACGTGTTGAA", "relative binding free energy": 0.3}, {"sequence": "CATGTCACGTGTGAGG", "relative binding free energy": 0.11}, {"sequence": "TTTAACACGTGTGTTA", "relative binding free energy": 0.05}, {"sequence": "TGGCTCACGTGATGGC", "relative binding free energy": 0.43}, {"sequence": "TTGGACACGTGAGCGG", "relative binding free energy": 0.05}, {"sequence": "GAGCGCACGTGGGATT", "relative binding free energy": -0.03}, {"sequence": "TTTAGCACGTGTGTTC", "relative binding free energy": 0}, {"sequence": "GTACGCACGTGAGGTG", "relative binding free energy": 0.15}, {"sequence": "AGCGGCACGTGTTTGT", "relative binding free energy": -0.04}, {"sequence": "TAGGTCACGTGTGAAT", "relative binding free energy": 0.24}]}]}
